In paper PMC9911399, “Two distinct binding modes provide the RNA-binding protein RbFox with extraordinary sequence specificity”:
Changes are numbered by the printed parent chain; changes in the protein carry UniProt numbers. The list shows a part of the results.

T1: RBFOX1 RRM (Homo sapiens, UniProt Q9NWB1 109-208)
T1 sequence: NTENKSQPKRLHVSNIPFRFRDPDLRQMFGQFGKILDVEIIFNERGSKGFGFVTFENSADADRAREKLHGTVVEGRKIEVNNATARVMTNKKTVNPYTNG

B1: UUCCAUC (DNA:RNA)
RNA: GGGAGACCGGAAUUCAGAUUGUCCUUCCAUCUUAAAUCCCGUCGUAGCCACCA
DNA 1: CAATCTGAATTCCGGTCTCCC
DNA 2: TGGTGGCTACGACGGGATT
B2: GUCUUCU (DNA:RNA)
RNA: B1 RNA with U25G, C28U, A29U, U30C, C31U
DNA 1: CAATCTGAATTCCGGTCTCCC
DNA 2: TGGTGGCTACGACGGGATT
B3: GCGUCCU (DNA:RNA)
RNA: GGGAGACCGGAAUUCAGAUUGUCCGCGUCCUUUAAAUCCCGUCGUAGCCACCA
DNA 1: CAATCTGAATTCCGGTCTCCC
DNA 2: TGGTGGCTACGACGGGATT
B4: GCCUGCG (DNA:RNA)
RNA: B3 RNA with G27C, C29G, U31G
DNA 1: CAATCTGAATTCCGGTCTCCC
DNA 2: TGGTGGCTACGACGGGATT
B5: CUCACCU (DNA:RNA)
RNA: B3 RNA with G25C, C26U, G27C, U28A
DNA 1: CAATCTGAATTCCGGTCTCCC
DNA 2: TGGTGGCTACGACGGGATT
B6: GGAUUGU (DNA:RNA)
RNA: B3 RNA with C26G, G27A, C29U, C30G
DNA 1: CAATCTGAATTCCGGTCTCCC
DNA 2: TGGTGGCTACGACGGGATT
B7: AAGUGUG (DNA:RNA)
RNA: B3 RNA with G25A, C26A, C29G, C30U, U31G
DNA 1: CAATCTGAATTCCGGTCTCCC
DNA 2: TGGTGGCTACGACGGGATT
B8: UACGAGA (DNA:RNA)
RNA: B1 RNA with U26A, C28G, U30G, C31A
DNA 1: CAATCTGAATTCCGGTCTCCC
DNA 2: TGGTGGCTACGACGGGATT
B9: GCUGGAA (DNA:RNA)
RNA: B3 RNA with G27U, U28G, C29G, C30A, U31A
DNA 1: CAATCTGAATTCCGGTCTCCC
DNA 2: TGGTGGCTACGACGGGATT
B10: AGAAAUU (DNA:RNA)
RNA: B1 RNA with U25A, U26G, C27A, C28A, C31U
DNA 1: CAATCTGAATTCCGGTCTCCC
DNA 2: TGGTGGCTACGACGGGATT
B11: GAGAACC (DNA:RNA)
RNA: B3 RNA with C26A, U28A, C29A, U31C
DNA 1: CAATCTGAATTCCGGTCTCCC
DNA 2: TGGTGGCTACGACGGGATT
B12: AGAACUG (DNA:RNA)
RNA: B3 RNA with G25A, C26G, G27A, U28A, C30U, U31G
DNA 1: CAATCTGAATTCCGGTCTCCC
DNA 2: TGGTGGCTACGACGGGATT
B13: UUAUCCU (DNA:RNA)
RNA: B3 RNA with G25U, C26U, G27A
DNA 1: CAATCTGAATTCCGGTCTCCC
DNA 2: TGGTGGCTACGACGGGATT
B14: CGAGACG (DNA:RNA)
RNA: B3 RNA with G25C, C26G, G27A, U28G, C29A, U31G
DNA 1: CAATCTGAATTCCGGTCTCCC
DNA 2: TGGTGGCTACGACGGGATT
B15: GCAAGCG (DNA:RNA)
RNA: B3 RNA with G27A, U28A, C29G, U31G
DNA 1: CAATCTGAATTCCGGTCTCCC
DNA 2: TGGTGGCTACGACGGGATT
B16: AAACUCG (DNA:RNA)
RNA: B3 RNA with G25A, C26A, G27A, U28C, C29U, U31G
DNA 1: CAATCTGAATTCCGGTCTCCC
DNA 2: TGGTGGCTACGACGGGATT
B17: CGUAACG (DNA:RNA)
RNA: B3 RNA with G25C, C26G, G27U, U28A, C29A, U31G
DNA 1: CAATCTGAATTCCGGTCTCCC
DNA 2: TGGTGGCTACGACGGGATT
B18: UAAUUAU (DNA:RNA)
RNA: B3 RNA with G25U, C26A, G27A, C29U, C30A
DNA 1: CAATCTGAATTCCGGTCTCCC
DNA 2: TGGTGGCTACGACGGGATT
B19: AACGGCC (DNA:RNA)
RNA: B1 RNA with U25A, U26A, C28G, A29G, U30C
DNA 1: CAATCTGAATTCCGGTCTCCC
DNA 2: TGGTGGCTACGACGGGATT
B20: CCUAAUA (DNA:RNA)
RNA: B1 RNA with U25C, U26C, C27U, C28A, C31A
DNA 1: CAATCTGAATTCCGGTCTCCC
DNA 2: TGGTGGCTACGACGGGATT
B21: AAUAGGG (DNA:RNA)
RNA: GGGAGACCGGAAUUCAGAUUGUCCAAUAGGGUUAAAUCCCGUCGUAGCCACCA
DNA 1: CAATCTGAATTCCGGTCTCCC
DNA 2: TGGTGGCTACGACGGGATT
B22: UACCCUG (DNA:RNA)
RNA: B1 RNA with U26A, A29C, C31G
DNA 1: CAATCTGAATTCCGGTCTCCC
DNA 2: TGGTGGCTACGACGGGATT
B23: CUUUUGU (DNA:RNA)
RNA: B21 RNA with A25C, A26U, A28U, G29U, G31U
DNA 1: CAATCTGAATTCCGGTCTCCC
DNA 2: TGGTGGCTACGACGGGATT
B24: CUACAAU (DNA:RNA)
RNA: B1 RNA with U25C, C27A, U30A, C31U
DNA 1: CAATCTGAATTCCGGTCTCCC
DNA 2: TGGTGGCTACGACGGGATT
B25: ACGCUUA (DNA:RNA)
RNA: B3 RNA with G25A, U28C, C29U, C30U, U31A
DNA 1: CAATCTGAATTCCGGTCTCCC
DNA 2: TGGTGGCTACGACGGGATT
B26: GGAAAUG (DNA:RNA)
RNA: B21 RNA with A25G, A26G, U27A, G29A, G30U
DNA 1: CAATCTGAATTCCGGTCTCCC
DNA 2: TGGTGGCTACGACGGGATT
B27: UUGCGCA (DNA:RNA)
RNA: B1 RNA with C27G, A29G, U30C, C31A
DNA 1: CAATCTGAATTCCGGTCTCCC
DNA 2: TGGTGGCTACGACGGGATT
B28: CUUCUCG (DNA:RNA)
RNA: B21 RNA with A25C, A26U, A28C, G29U, G30C
DNA 1: CAATCTGAATTCCGGTCTCCC
DNA 2: TGGTGGCTACGACGGGATT
B29: AAUAGGA (DNA:RNA)
RNA: B21 RNA with G31A
DNA 1: CAATCTGAATTCCGGTCTCCC
DNA 2: TGGTGGCTACGACGGGATT
B30: GUGCACU (DNA:RNA)
RNA: B3 RNA with C26U, U28C, C29A
DNA 1: CAATCTGAATTCCGGTCTCCC
DNA 2: TGGTGGCTACGACGGGATT
B31: GGGGUCA (DNA:RNA)
RNA: B3 RNA with C26G, U28G, C29U, U31A
DNA 1: CAATCTGAATTCCGGTCTCCC
DNA 2: TGGTGGCTACGACGGGATT

What follows are binders tested against T1, RBFOX1 RRM (assay: EMSA; HiTS-Eq, 1 nM pool, 10 min; buffer printed only for the single-RNA assays: 10 mM Tris pH 7.5, 150 mM NaCl, 3.4 mM EDTA, 0.001% NP-40, 30 C). Settings: tags: His6 N-terminal (pET28a); label: 5' 32P.
Procedure, shortened: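 A pool of RNA with 7 randomized nucleotides, 5′-radiolabelled and with DNA-annealed flanks, was equilibrated at 1 nM for 10 min in 50 µL with purified RbFox RRM, wild type or mutant, across increasing protein concentrations. Free RNA was separated by 8% native PAGE, excised, reverse-transcribed, barcoded by PCR and sequenced. Relative association constants were obtained from read-count changes of each RNA species versus the control reaction and normalised to the cognate motif.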

| Binder | binding signal |
| --- | --- |
| B1 | 0.00348 KA relative to UGCAUGU |
| B2 | 0.0169 KA relative to UGCAUGU |
| B3 | 0.0104 KA relative to UGCAUGU |
| B4 | 0.0321 KA relative to UGCAUGU |
| B5 | 0.00322 KA relative to UGCAUGU |
| B6 | 0.0266 KA relative to UGCAUGU |
| B7 | 0.0144 KA relative to UGCAUGU |
| B8 | 0.00972 KA relative to UGCAUGU |
| B9 | 0.0119 KA relative to UGCAUGU |
| B10 | 0.00368 KA relative to UGCAUGU |
| B11 | 0.00801 KA relative to UGCAUGU |
| B12 | 0.0109 KA relative to UGCAUGU |
| B13 | 0.00375 KA relative to UGCAUGU |
| B14 | 0.0104 KA relative to UGCAUGU |
| B15 | 0.0145 KA relative to UGCAUGU |
| B16 | 0.00346 KA relative to UGCAUGU |

| Binder | binding signal |
| --- | --- |
| B17 | 0.0091 KA relative to UGCAUGU |
| B18 | 0.0077 KA relative to UGCAUGU |
| B19 | 0.011 KA relative to UGCAUGU |
| B20 | 0.00095 KA relative to UGCAUGU |
| B21 | 0.00107 KA relative to UGCAUGU |
| B22 | 0.00795 KA relative to UGCAUGU |
| B23 | 0.0208 KA relative to UGCAUGU |
| B24 | 0.00174 KA relative to UGCAUGU |
| B25 | 0.00273 KA relative to UGCAUGU |
| B26 | 0.0124 KA relative to UGCAUGU |
| B27 | 0.0205 KA relative to UGCAUGU |
| B28 | 0.00824 KA relative to UGCAUGU |
| B29 | 0.000462 KA relative to UGCAUGU |
| B30 | 0.0223 KA relative to UGCAUGU |
| B31 | 0.0251 KA relative to UGCAUGU |
